Reference: the supplement of paper PMC7826260
The other results are listed elsewhere or left out. Cleavage of a single-stranded DNA pool by Rep nickase domains was read by sequencing at 3 µM enzyme and 37 °C for 1 h; the strands have 90 letters, of which the middle is given. Numbers give uncut DNA relative to the enzyme-free pool, as log2; the lower, the more was cut; hits are not called. Counts are relative to all reads, so uncut sequences can rise above 0 when many others are cut.

Experiments:
Test in all cases: uncleaved DNA left, log2 of reads against the no-enzyme library (log2 ratio); higher = less cleavage (more negative = more Rep cleavage of the k-mer); sequences stand for … in CTCGTCCG…ACCGGAGA
[1] = tested on: T1, Rep nickase domain of Muscovy duck circovirus
T1 sequence (residues 1-111 of Rep, tag left off): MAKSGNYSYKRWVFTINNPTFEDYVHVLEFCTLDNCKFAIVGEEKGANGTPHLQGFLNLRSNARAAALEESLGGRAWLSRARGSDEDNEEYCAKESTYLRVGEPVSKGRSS
Procedure: (§1)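 A pool of 90-nt single-stranded DNAs with seven random bases just before the constant AC of the nick site (name = the seven bases) was cut by 3 µM recombinant His6-SUMO-tagged Rep nickase domain (300 nM DNA, 50 mM HEPES pH 8.0, 50 mM NaCl, 1 mM MnCl2, 1 h, 37 °C, three replicates). Uncut DNA was amplified and sequenced.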

[2] = tested on: T2, Rep nickase domain of banana bunchy top virus
T2 sequence (residues 1-94 of Rep, tag left off): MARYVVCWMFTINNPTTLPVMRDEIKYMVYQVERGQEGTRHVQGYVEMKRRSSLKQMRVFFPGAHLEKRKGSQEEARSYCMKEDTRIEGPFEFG
Procedure: as §1

[3] = tested on: T3, Rep nickase domain of cabbage leaf curl virus
T3 sequence (residues 1-116 of Rep, tag left off): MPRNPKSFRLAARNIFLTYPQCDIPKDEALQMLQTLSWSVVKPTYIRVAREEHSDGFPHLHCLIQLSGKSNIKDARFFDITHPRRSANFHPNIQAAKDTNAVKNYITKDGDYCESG
Procedure: as §1

[4] = tested on: T4, Rep nickase domain of chickpea chlorotic dwarf virus
T4 sequence (residues 1-124 of Rep, tag left off): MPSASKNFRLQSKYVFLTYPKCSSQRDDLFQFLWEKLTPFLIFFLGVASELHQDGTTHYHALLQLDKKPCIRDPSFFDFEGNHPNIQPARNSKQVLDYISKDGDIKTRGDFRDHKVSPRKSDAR
Procedure: as §1

[5] = tested on: T5, Rep nickase domain of faba bean necrotic yellows virus
T5 sequence (residues 1-98 of Rep, tag left off): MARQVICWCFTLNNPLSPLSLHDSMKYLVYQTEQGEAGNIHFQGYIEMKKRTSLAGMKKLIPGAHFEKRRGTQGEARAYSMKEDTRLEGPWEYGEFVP
Procedure: as §1

[6] = tested on: T6, Rep nickase domain of maize striate mosaic virus
T6 sequence (residues 1-117 of Rep, tag left off): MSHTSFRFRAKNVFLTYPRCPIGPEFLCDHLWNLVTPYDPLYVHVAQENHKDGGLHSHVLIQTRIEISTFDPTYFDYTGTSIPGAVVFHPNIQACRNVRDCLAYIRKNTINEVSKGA
Procedure: as §1

[7] = tested on: T7, Rep nickase domain of porcine circovirus 2
T7 sequence (residues 2-116 of Rep, tag left off): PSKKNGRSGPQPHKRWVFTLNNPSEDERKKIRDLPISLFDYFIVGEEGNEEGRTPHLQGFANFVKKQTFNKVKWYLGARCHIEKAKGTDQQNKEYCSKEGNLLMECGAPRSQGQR
Procedure: as §1

[8] = tested on: T8, Rep nickase domain of tomato golden mosaic virus
T8 sequence (residues 1-124 of Rep, tag left off): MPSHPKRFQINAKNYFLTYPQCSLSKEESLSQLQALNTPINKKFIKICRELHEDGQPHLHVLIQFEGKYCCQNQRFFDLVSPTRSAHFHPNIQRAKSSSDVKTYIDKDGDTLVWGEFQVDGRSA
Procedure: as §1

[9] = tested on: T9, Rep nickase domain of tomato yellow leaf curl virus
T9 sequence (residues 1-136 of Rep, tag left off): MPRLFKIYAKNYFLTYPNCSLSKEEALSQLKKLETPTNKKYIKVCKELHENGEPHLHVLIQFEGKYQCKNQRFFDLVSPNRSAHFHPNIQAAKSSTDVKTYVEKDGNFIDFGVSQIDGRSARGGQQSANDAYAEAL
Procedure: as §1

[10] = tested on: T10, Rep nickase domain of wheat dwarf virus
T10 sequence (residues 1-137 of Rep, tag left off): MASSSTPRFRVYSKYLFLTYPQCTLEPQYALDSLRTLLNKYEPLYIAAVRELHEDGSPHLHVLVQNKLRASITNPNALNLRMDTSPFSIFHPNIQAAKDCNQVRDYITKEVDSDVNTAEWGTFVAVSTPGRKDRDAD
Procedure: as §1

| Sequence | uncleaved DNA left (log2) [1] | uncleaved DNA left (log2) [2] | uncleaved DNA left (log2) [3] | uncleaved DNA left (log2) [4] | uncleaved DNA left (log2) [5] | uncleaved DNA left (log2) [6] | uncleaved DNA left (log2) [7] | uncleaved DNA left (log2) [8] | uncleaved DNA left (log2) [9] | uncleaved DNA left (log2) [10] |
| --- | --- | --- | --- | --- | --- | --- | --- | --- | --- | --- |
| ACCGCAG | -0.0536 | -0.1 | -0.635 | 0.091 | 0.0288 | -0.623 | 0.096 | -0.0433 | 0.00392 | -0.227 |
| CACCACA | -0.0956 | 0.128 | -0.208 | -2.01 | 0.0213 | -0.721 | 0.0256 | -0.114 | 0.0664 | 0.071 |
| CGCCTCT | -0.216 | -0.144 | -0.173 | -1.58 | -0.0787 | -0.237 | -0.322 | -0.176 | -0.179 | -0.0903 |
| TCAGTCG | -0.02 | -0.0663 | -0.227 | 0.612 | 0.00099 | 0.668 | 0.0324 | 0.0869 | 0.0101 | -0.0637 |
| TTCTGCG | 0.0567 | 0.0686 | -0.271 | 1.06 | 0.0526 | 0.306 | 0.231 | -0.0364 | -0.198 | -0.15 |
| GTCGTGG | -0.0693 | -0.0267 | 0.249 | 0.716 | -0.073 | 1.39 | 0.00516 | 0.0179 | -0.00629 | -0.149 |
| ACTGTTG | 0.0169 | 0.0136 | -0.532 | -0.334 | -0.00307 | -1.14 | 0.0877 | -0.0902 | 0.0545 | -0.103 |
| TCGGGCC | 0.0541 | -0.0136 | 0.286 | 0.63 | -0.0697 | 0.723 | 0.0141 | -0.109 | 0.0449 | 0.084 |
| TGACCTT | 0.191 | 0.236 | 0.363 | 0.192 | -0.034 | 1.12 | -0.122 | 0.0415 | 0.228 | 0.267 |
| CACGGGC | 0.0794 | 0.0387 | 0.0702 | 0.251 | -0.0831 | -0.146 | 0.0521 | 0.00508 | 0.0139 | -0.0266 |
| TAAGAAA | 0.0748 | 0.0611 | -0.237 | -1.85 | -0.0177 | -0.306 | -0.0678 | 0.00513 | -0.00131 | -0.0552 |
| TGGGAAA | 0.108 | 0.165 | 0.914 | 1.99 | -0.0158 | 2.2 | 0.197 | -0.0253 | 0.142 | 0.144 |
| TCGGAAA | 0.149 | 0.0919 | 0.41 | 0.592 | 0.112 | 0.394 | 0.163 | 0.174 | 0.0278 | 0.225 |
| CAATTTA | -0.229 | 0.114 | -1.69 | -2.72 | 0.077 | -1.05 | -1.11 | -0.185 | -0.0725 | -0.401 |
| GAGTGAC | 0.00189 | 0.108 | 0.353 | 1.42 | -0.0427 | 1.8 | 0.0656 | 0.0989 | 0.102 | 0.179 |
| TTGACTT | 0.126 | -0.0821 | 0.295 | -0.0933 | 0.0146 | 1.19 | -0.305 | -0.09 | 0.0449 | 0.095 |
